Binding data for one molecule are collected here from article PMC8954037.

These are yes or no findings as the source states them, for the method shown. In cells and extracts the contact can be indirect.

For the assay, the target named is Grp94/gp96 (endoplasmic reticulum chaperone), endogenous in human cell lines (human (endogenous in HeLa, MDA-MB-231, HS578T)), P14625. Put plainly: co-IP; anti-Grp94 3c4 on HeLa lysate in RIPA buffer after cross-linking of the culture with DSP (200 ug/mL, 5 min, room temperature); linker cleaved before SDS-PAGE. As to conditions: remark: other sources report otherwise.

B1: calreticulin, endogenous in HeLa cells, P27797 18-417 (protein)
chain: EPAVYFKEQFLDGDGWTSRWIESKHKSDFGKFVLSSGKFYGDEEKDKGLQTSQDARFYALSASFEPFSNKGQTLVVQFTVKHEQNIDCGGGYVKLFPNSLDQTDMHGDSEYNIMFGPDICGPGTKKVHVIFNYKGKNVLINKDIRCKDDEFTHLYTLIVRPDNTYEVKIDNSQVESGSLEDDWDFLPPKKIKDPDASKPEDWDERAKIDDPTDSKPEDWDKPEHIPDPDAKKPEDWDEEMDGEWEPPVIQNPEYKGEWKPRQIDNPDYKGTWIHPEIDNPEYSPDPSIYAYDNFGVLGLDLWQVKSGTIFDNFLITNDEAYAEEFGNETWGVTKAAEKQMKDKQDEEQRLKEEEEDKKRKEEEEAEDKEDDEDKDEDEEDEEDKEEDEEEDVPGQAKDEL
For the molecule B1, the binding entry is on record as “no binding”.
